# Measurements taken from the supplement of paper PMC10441789.
# The list shows a part of the results. Antibody binding of pooled human sera (four to six donors per pool; dilution not stated) to peptides of the Trypanosoma cruzi antigen TSSA on microarrays. Quantile-normalised fluorescence in arbitrary units, mean of duplicate arrays; higher = more binding. No active / inactive call. The uninfected pools are read here as the healthy donors of the same country. The strongest signals lie near the top of the scale (about 60,000).
# What was measured:
# Assay in all cases: antibody binding signal (normalised fluorescence) (arbitrary fluorescence units); higher = stronger serum antibody binding to peptide
# [1] = system: pooled sera of chronic Chagas disease patients, Argentina
# Experimental: (§1)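 Microarray of 15-residue peptides over residues 30-55 of Trypanosoma cruzi TSSAII, each with 1 to 10 substitutions at naturally variable positions, probed with one serum pool per country.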
# [2] = system: pooled sera of chronic Chagas disease patients, Bolivia
# Experimental: as §1
# [3] = system: pooled sera of chronic Chagas disease patients, Brazil
# Experimental: as §1
# [4] = system: pooled sera of chronic Chagas disease patients, Colombia
# Experimental: as §1
# [5] = system: pooled sera of chronic Chagas disease patients, Mexico
# Experimental: as §1
# [6] = system: pooled sera of chronic Chagas disease patients, USA
# Experimental: as §1
# [7] = system: pooled sera of uninfected people, Argentina
# Experimental: as §1
# [8] = system: pooled sera of uninfected people, Bolivia
# Experimental: as §1
# [9] = system: pooled sera of uninfected people, Brazil
# Experimental: as §1
# [10] = system: pooled sera of uninfected people, Colombia
# Experimental: as §1
# [11] = system: pooled sera of uninfected people, Mexico
# Experimental: as §1
# [12] = system: pooled sera of uninfected people, USA
# Experimental: as §1
Sequence,antibody binding signal [1],antibody binding signal [2],antibody binding signal [3],antibody binding signal [4],antibody binding signal [5],antibody binding signal [6],antibody binding signal [7],antibody binding signal [8],antibody binding signal [9],antibody binding signal [10],antibody binding signal [11],antibody binding signal [12]
EKKAATGGAPSPSGA,1040,260,853,2430,2080,1350,412,1210,120,943,167,560
TPPSGKDKKAAAGGT,1990,548,413,941,38700,1180,137,613,1040,190,97.6,109
GTDNKAAAGGTPSQS,259,194,28500,2150,313,1040,174,730,3060,268,247,104
SGKDNKTATGGAPSP,1030,206,612,3030,1060,1760,303,124,126,383,83.8,162
GTENKAAAGGAPSPP,41500,1340,3660,7950,6690,4030,224,391,176,328,147,346
TEKKPATGGAPSPSG,3510,1250,1750,3450,1800,3090,501,1140,217,153,303,695
GTENKPAAGGTPSPS,44900,1770,4410,1560,1600,578,413,2210,1450,773,315,160
DKKTATGETPSPSGA,297,400,715,230,313,7090,425,200,166,127,343,621
GKDKKPAAGGTPSQP,269,199,242,1620,543,586,147,99.9,1020,144,133,89.4
PSGKDNKPAAGGAPS,4310,1340,5180,6200,6790,4830,945,769,139,130,159,149
TPPSGKDKKPATGET,12900,4580,9380,344,39800,1710,368,625,120,299,1640,571
DNKTATGGAPSPSGA,607,476,643,808,379,586,336,240,662,241,505,199
PSGTDKKAAAGETPS,2600,540,6980,6950,2200,2240,239,545,233,1030,1700,236
